# PMC9911399, “Two distinct binding modes provide the RNA-binding protein RbFox with extraordinary sequence specificity”
# Substitutions are numbered along the chain they refer to; changes in the protein carry UniProt numbers. The list shows a part of the results.
# T1: RBFOX1 RRM RbFoxmut (Fox-RRM*) (Homo sapiens, UniProt Q9NWB1 109-208, R118D;E147R;N151S;E152T)
# T1 sequence: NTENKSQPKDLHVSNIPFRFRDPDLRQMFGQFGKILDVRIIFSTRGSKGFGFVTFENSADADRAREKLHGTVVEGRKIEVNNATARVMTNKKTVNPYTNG
# B1: CCGGAUA (DNA:RNA)
# RNA: GGGAGACCGGAAUUCAGAUUGUCCCCGGAUAUUAAAUCCCGUCGUAGCCACCA
# DNA 1: CAATCTGAATTCCGGTCTCCC
# DNA 2: TGGTGGCTACGACGGGATT
# B2: GAUCGGG (DNA:RNA)
# RNA: GGGAGACCGGAAUUCAGAUUGUCCGAUCGGGUUAAAUCCCGUCGUAGCCACCA
# DNA 1: CAATCTGAATTCCGGTCTCCC
# DNA 2: TGGTGGCTACGACGGGATT
# B3: UCGCCGU (DNA:RNA)
# RNA: B1 RNA with C25U, G28C, A29C, U30G, A31U
# DNA 1: CAATCTGAATTCCGGTCTCCC
# DNA 2: TGGTGGCTACGACGGGATT
# B4: CGCUUCC (DNA:RNA)
# RNA: B1 RNA with C26G, G27C, G28U, A29U, U30C, A31C
# DNA 1: CAATCTGAATTCCGGTCTCCC
# DNA 2: TGGTGGCTACGACGGGATT
# B5: AUGGGCA (DNA:RNA)
# RNA: B1 RNA with C25A, C26U, A29G, U30C
# DNA 1: CAATCTGAATTCCGGTCTCCC
# DNA 2: TGGTGGCTACGACGGGATT
# B6: GUGUGCG (DNA:RNA)
# RNA: B2 RNA with A26U, U27G, C28U, G30C
# DNA 1: CAATCTGAATTCCGGTCTCCC
# DNA 2: TGGTGGCTACGACGGGATT
# B7: UUUAUGU (DNA:RNA)
# RNA: B2 RNA with G25U, A26U, C28A, G29U, G31U
# DNA 1: CAATCTGAATTCCGGTCTCCC
# DNA 2: TGGTGGCTACGACGGGATT
# B8: UAAUUAG (DNA:RNA)
# RNA: B2 RNA with G25U, U27A, C28U, G29U, G30A
# DNA 1: CAATCTGAATTCCGGTCTCCC
# DNA 2: TGGTGGCTACGACGGGATT
# B9: GUACCUA (DNA:RNA)
# RNA: B1 RNA with C25G, C26U, G27A, G28C, A29C
# DNA 1: CAATCTGAATTCCGGTCTCCC
# DNA 2: TGGTGGCTACGACGGGATT
# B10: AAACUAG (DNA:RNA)
# RNA: B2 RNA with G25A, U27A, G29U, G30A
# DNA 1: CAATCTGAATTCCGGTCTCCC
# DNA 2: TGGTGGCTACGACGGGATT
# B11: GUCAGAA (DNA:RNA)
# RNA: B2 RNA with A26U, U27C, C28A, G30A, G31A
# DNA 1: CAATCTGAATTCCGGTCTCCC
# DNA 2: TGGTGGCTACGACGGGATT
# B12: UGGGACC (DNA:RNA)
# RNA: B1 RNA with C25U, C26G, U30C, A31C
# DNA 1: CAATCTGAATTCCGGTCTCCC
# DNA 2: TGGTGGCTACGACGGGATT
# B13: AGGUGAG (DNA:RNA)
# RNA: B2 RNA with G25A, A26G, U27G, C28U, G30A
# DNA 1: CAATCTGAATTCCGGTCTCCC
# DNA 2: TGGTGGCTACGACGGGATT
# B14: CUUGUCC (DNA:RNA)
# RNA: B1 RNA with C26U, G27U, A29U, U30C, A31C
# DNA 1: CAATCTGAATTCCGGTCTCCC
# DNA 2: TGGTGGCTACGACGGGATT
# B15: CAGAAGG (DNA:RNA)
# RNA: B1 RNA with C26A, G28A, U30G, A31G
# DNA 1: CAATCTGAATTCCGGTCTCCC
# DNA 2: TGGTGGCTACGACGGGATT
# B16: GCCAAUC (DNA:RNA)
# RNA: B1 RNA with C25G, G27C, G28A, A31C
# DNA 1: CAATCTGAATTCCGGTCTCCC
# DNA 2: TGGTGGCTACGACGGGATT
# B17: GGGGACU (DNA:RNA)
# RNA: B1 RNA with C25G, C26G, U30C, A31U
# DNA 1: CAATCTGAATTCCGGTCTCCC
# DNA 2: TGGTGGCTACGACGGGATT
# B18: CACGCGA (DNA:RNA)
# RNA: B1 RNA with C26A, G27C, A29C, U30G
# DNA 1: CAATCTGAATTCCGGTCTCCC
# DNA 2: TGGTGGCTACGACGGGATT
# B19: AAUGCAG (DNA:RNA)
# RNA: B2 RNA with G25A, C28G, G29C, G30A
# DNA 1: CAATCTGAATTCCGGTCTCCC
# DNA 2: TGGTGGCTACGACGGGATT
# B20: GCCACUC (DNA:RNA)
# RNA: B1 RNA with C25G, G27C, G28A, A29C, A31C
# DNA 1: CAATCTGAATTCCGGTCTCCC
# DNA 2: TGGTGGCTACGACGGGATT
# B21: UGAGCUU (DNA:RNA)
# RNA: B1 RNA with C25U, C26G, G27A, A29C, A31U
# DNA 1: CAATCTGAATTCCGGTCTCCC
# DNA 2: TGGTGGCTACGACGGGATT
# B22: AGCUUUG (DNA:RNA)
# RNA: B1 RNA with C25A, C26G, G27C, G28U, A29U, A31G
# DNA 1: CAATCTGAATTCCGGTCTCCC
# DNA 2: TGGTGGCTACGACGGGATT
# B23: CUUACUG (DNA:RNA)
# RNA: B1 RNA with C26U, G27U, G28A, A29C, A31G
# DNA 1: CAATCTGAATTCCGGTCTCCC
# DNA 2: TGGTGGCTACGACGGGATT
# B24: GCUUCCC (DNA:RNA)
# RNA: B2 RNA with A26C, C28U, G29C, G30C, G31C
# DNA 1: CAATCTGAATTCCGGTCTCCC
# DNA 2: TGGTGGCTACGACGGGATT
# B25: UUUAACG (DNA:RNA)
# RNA: B2 RNA with G25U, A26U, C28A, G29A, G30C
# DNA 1: CAATCTGAATTCCGGTCTCCC
# DNA 2: TGGTGGCTACGACGGGATT
# B26: GUUUCGA (DNA:RNA)
# RNA: B2 RNA with A26U, C28U, G29C, G31A
# DNA 1: CAATCTGAATTCCGGTCTCCC
# DNA 2: TGGTGGCTACGACGGGATT
# B27: GACGCCC (DNA:RNA)
# RNA: B2 RNA with U27C, C28G, G29C, G30C, G31C
# DNA 1: CAATCTGAATTCCGGTCTCCC
# DNA 2: TGGTGGCTACGACGGGATT
# B28: ACUUUUG (DNA:RNA)
# RNA: B1 RNA with C25A, G27U, G28U, A29U, A31G
# DNA 1: CAATCTGAATTCCGGTCTCCC
# DNA 2: TGGTGGCTACGACGGGATT
# B29: UGCCGUC (DNA:RNA)
# RNA: B2 RNA with G25U, A26G, U27C, G30U, G31C
# DNA 1: CAATCTGAATTCCGGTCTCCC
# DNA 2: TGGTGGCTACGACGGGATT
# B30: UCUCUAU (DNA:RNA)
# RNA: B2 RNA with G25U, A26C, G29U, G30A, G31U
# DNA 1: CAATCTGAATTCCGGTCTCCC
# DNA 2: TGGTGGCTACGACGGGATT
# B31: AAUCUCG (DNA:RNA)
# RNA: B2 RNA with G25A, G29U, G30C
# DNA 1: CAATCTGAATTCCGGTCTCCC
# DNA 2: TGGTGGCTACGACGGGATT
# Target: T1, RBFOX1 RRM RbFoxmut (Fox-RRM*)
# Assay: EMSA; HiTS-Eq, 1 nM pool, 10 min; buffer printed only for the single-RNA assays: 10 mM Tris pH 7.5, 150 mM NaCl, 3.4 mM EDTA, 0.001% NP-40, 30 C
# Settings: tags: His6 N-terminal (pET28a); label: 5' 32P
# Method in brief: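 Purified RbFox RRM, wild type or mutant, was incubated for 10 min in 50 µL with 1 nM of a 5′-radiolabelled RNA pool carrying 7 randomized nucleotides, whose flanks were annealed to DNA oligonucleotides, over a series of increasing protein concentrations. Unbound RNA was resolved on 8% native PAGE, cut out, reverse-transcribed, barcoded by PCR and sequenced on an Illumina HiSeq 2500. Relative association constants were derived from changes in read counts for each RNA species versus the control reaction and normalised to the cognate motif.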
row,Binder,binding signal
1,B1,0.0587 KA relative to UGCAUGU
2,B2,0.0692 KA relative to UGCAUGU
3,B3,0.103 KA relative to UGCAUGU
4,B4,0.0933 KA relative to UGCAUGU
5,B5,0.0919 KA relative to UGCAUGU
6,B6,0.314 KA relative to UGCAUGU
7,B7,0.149 KA relative to UGCAUGU
8,B8,0.1 KA relative to UGCAUGU
9,B9,0.0857 KA relative to UGCAUGU
10,B10,0.117 KA relative to UGCAUGU
11,B11,0.0792 KA relative to UGCAUGU
12,B12,0.107 KA relative to UGCAUGU
13,B13,0.119 KA relative to UGCAUGU
14,B14,0.107 KA relative to UGCAUGU
15,B15,0.0734 KA relative to UGCAUGU
16,B16,0.0382 KA relative to UGCAUGU

row,Binder,binding signal
1,B17,0.0795 KA relative to UGCAUGU
2,B18,0.0691 KA relative to UGCAUGU
3,B19,0.103 KA relative to UGCAUGU
4,B20,0.0437 KA relative to UGCAUGU
5,B21,0.0836 KA relative to UGCAUGU
6,B22,0.119 KA relative to UGCAUGU
7,B23,0.119 KA relative to UGCAUGU
8,B24,0.068 KA relative to UGCAUGU
9,B25,0.112 KA relative to UGCAUGU
10,B26,0.217 KA relative to UGCAUGU
11,B27,0.0796 KA relative to UGCAUGU
12,B28,0.116 KA relative to UGCAUGU
13,B29,0.0894 KA relative to UGCAUGU
14,B30,0.103 KA relative to UGCAUGU
15,B31,0.063 KA relative to UGCAUGU
